{"source": "paper PMC4336329", "about": "(PLoS ONE, 2015)", "note": "About 2,200 (0.71%) of roughly 310,000 compounds showed an effect of 50% or more. The effect is printed as a negative number. The list shows a part of the results.", "data": [{"molecular_target": "human ether-à-go-go-related gene (hERG) potassium channel (human, UniProt Q12809)", "sequence (Q12809 whole entry, looked up)": "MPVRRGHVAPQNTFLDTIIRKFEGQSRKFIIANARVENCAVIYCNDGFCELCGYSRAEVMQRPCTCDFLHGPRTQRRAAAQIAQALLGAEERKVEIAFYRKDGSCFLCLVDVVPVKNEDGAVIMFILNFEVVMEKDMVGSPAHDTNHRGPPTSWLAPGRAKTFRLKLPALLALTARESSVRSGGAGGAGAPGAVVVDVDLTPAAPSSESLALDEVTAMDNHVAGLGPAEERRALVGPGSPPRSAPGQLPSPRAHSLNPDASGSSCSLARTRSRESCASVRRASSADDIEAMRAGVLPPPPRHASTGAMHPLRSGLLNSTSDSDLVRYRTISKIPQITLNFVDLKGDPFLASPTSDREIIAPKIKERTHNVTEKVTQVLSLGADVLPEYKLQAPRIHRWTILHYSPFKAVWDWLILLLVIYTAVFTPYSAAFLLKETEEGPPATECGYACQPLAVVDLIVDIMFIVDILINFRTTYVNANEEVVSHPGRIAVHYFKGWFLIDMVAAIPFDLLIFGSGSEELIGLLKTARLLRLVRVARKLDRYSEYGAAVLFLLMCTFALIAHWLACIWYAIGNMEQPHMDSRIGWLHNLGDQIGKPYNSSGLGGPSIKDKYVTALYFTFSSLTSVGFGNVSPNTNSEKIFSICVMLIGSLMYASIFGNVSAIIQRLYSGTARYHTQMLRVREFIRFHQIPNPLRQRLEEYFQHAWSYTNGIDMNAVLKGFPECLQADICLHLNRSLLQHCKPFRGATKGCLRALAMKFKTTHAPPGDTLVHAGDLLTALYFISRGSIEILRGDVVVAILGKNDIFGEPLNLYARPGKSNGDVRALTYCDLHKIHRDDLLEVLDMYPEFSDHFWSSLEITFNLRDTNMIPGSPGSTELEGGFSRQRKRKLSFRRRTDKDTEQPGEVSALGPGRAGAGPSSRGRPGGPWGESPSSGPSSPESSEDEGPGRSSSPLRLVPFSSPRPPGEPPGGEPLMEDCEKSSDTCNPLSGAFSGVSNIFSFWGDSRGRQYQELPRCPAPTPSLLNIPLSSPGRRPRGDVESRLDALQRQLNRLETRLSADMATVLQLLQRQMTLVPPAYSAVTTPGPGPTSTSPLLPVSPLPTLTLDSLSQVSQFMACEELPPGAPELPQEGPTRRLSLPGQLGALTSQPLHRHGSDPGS", "test": "primary screen, population patch clamp on CHO cells stably expressing hERG", "units": {"hERG current change (%, negative = inhibition) at 1uM": "%"}, "values": [{"molecule": "COc1cccc(CNC(=O)C2CCCN(S(C)(=O)=O)C2)c1", "note": "(centres unmarked)", "hERG current change (%, negative = inhibition) at 1uM": 12.8}, {"molecule": "O=C(c1cnn(C(=O)c2ccccc2F)c1)c1ccccc1O", "hERG current change (%, negative = inhibition) at 1uM": -4.59}, {"molecule": "Cc1ccc(C)c(-n2c(CNc3ccc(F)cc3)nnc2SCC(N)=O)c1", "hERG current change (%, negative = inhibition) at 1uM": 2.87}, {"molecule": "CC1(C)c2[nH]c3ccccc3c2C[C@H]2C(=O)N(CCCO)CC(=O)N21", "hERG current change (%, negative = inhibition) at 1uM": 12.9}, {"molecule": "CC(C)(C)c1ccc2c(c1)N(CC(=O)N1CCCC1)C(=O)CO2", "hERG current change (%, negative = inhibition) at 1uM": 14.9}, {"molecule": "COc1cccc(CCNC(=O)COc2cccc3c2OC(C)(C)C3)c1", "hERG current change (%, negative = inhibition) at 1uM": 5.32}, {"molecule": "CN1CCN(S(=O)(=O)c2cccc3nsnc23)CC1", "hERG current change (%, negative = inhibition) at 1uM": 17.9}, {"molecule": "C/C(=N\\n1c(C)cc(C)c(C#N)c1=O)c1cccs1", "hERG current change (%, negative = inhibition) at 1uM": 5.83}, {"molecule": "C/C(=N/NS(=O)(=O)c1ccccc1)c1ccc(Cl)cc1", "hERG current change (%, negative = inhibition) at 1uM": 15.3}, {"molecule": "O=c1c2ccccc2nc(-c2ccccc2)n1/N=C/c1ccc([N+](=O)[O-])cc1", "hERG current change (%, negative = inhibition) at 1uM": 12.1}, {"molecule": "N#Cc1ccc(COC(=O)CC(NC(N)=O)c2ccc(Cl)cc2)cc1", "note": "(centres unmarked)", "hERG current change (%, negative = inhibition) at 1uM": -7.15}, {"molecule": "CCSc1cc(N2CCCC2)nc(-c2ccc(C)cc2)n1", "hERG current change (%, negative = inhibition) at 1uM": 14.3}, {"molecule": "O=C(CN1CCOCCOCCOCCOCC1)Nc1ccccc1", "hERG current change (%, negative = inhibition) at 1uM": 8.33}, {"molecule": "COc1ccc(Br)cc1CN(C)C(=O)Cc1ccc(S(=O)(=O)N2CCOCC2)s1", "hERG current change (%, negative = inhibition) at 1uM": -17.3}, {"molecule": "CCOc1ccc(NC(=O)c2cc([N+](=O)[O-])ccc2N2CCOCC2)cc1", "hERG current change (%, negative = inhibition) at 1uM": -16.3}, {"molecule": "Cc1ccc(S(=O)(=O)NCCC(=O)Nc2nnc(C)s2)cc1", "hERG current change (%, negative = inhibition) at 1uM": -1.76}, {"molecule": "COc1ccc(S(=O)(=O)NC(CC(=O)O)c2ccco2)cc1", "note": "(centres unmarked)", "hERG current change (%, negative = inhibition) at 1uM": -2.15}, {"molecule": "O=S(=O)(c1ccc(-n2cnnn2)cc1)N(C1CCCCC1)C1CCCCC1", "hERG current change (%, negative = inhibition) at 1uM": 9.04}, {"molecule": "CCOC(=O)c1sc2ncnc(Nc3cccc(C(=O)O)c3)c2c1C", "hERG current change (%, negative = inhibition) at 1uM": 18.6}, {"molecule": "NC(=O)CSc1nnc(C2CC2)n1Cc1ccccc1", "hERG current change (%, negative = inhibition) at 1uM": 6.27}, {"molecule": "COCCCNC(=O)c1cc2c(=O)n3cccc(C)c3nc2n(C(C)C)c1=N", "hERG current change (%, negative = inhibition) at 1uM": -46.1}, {"molecule": "Cc1ccc(OCC(=O)Nc2nnc(S(=O)(=O)N3CCCCC3)s2)cc1", "hERG current change (%, negative = inhibition) at 1uM": 7.35}, {"molecule": "Cc1c(CN2CCC(n3nccc3NC(=O)C3CCOC3)CC2)[nH]c2ccccc12", "note": "(centres unmarked)", "hERG current change (%, negative = inhibition) at 1uM": -11}, {"molecule": "O=C(CNC(=O)c1ccccc1Cl)Nc1ccc(F)cc1", "hERG current change (%, negative = inhibition) at 1uM": 8.07}, {"molecule": "CSc1ccc(CN(C)CC(=O)Nc2c(F)cccc2F)cc1.O=C(O)C(=O)O", "hERG current change (%, negative = inhibition) at 1uM": 7.89}, {"molecule": "Cc1ccc(NC(=O)COC(=O)c2c(-c3ccccc3)noc2C)cc1", "hERG current change (%, negative = inhibition) at 1uM": -1.78}, {"molecule": "CCCCn1c(=NC(=O)c2ccc3c(c2)OCO3)c(C#N)cc2c(=O)n3cccc(C)c3nc21", "hERG current change (%, negative = inhibition) at 1uM": 12.4}, {"molecule": "CN1CCC(=NNC(=O)CN(c2cccc([N+](=O)[O-])c2)S(=O)(=O)c2ccccc2)CC1", "hERG current change (%, negative = inhibition) at 1uM": 8.11}, {"molecule": "COC(=O)c1ccc(N2CCCCC2)c(NS(=O)(=O)c2ccc(C)cc2)c1", "hERG current change (%, negative = inhibition) at 1uM": 12.6}, {"molecule": "Cc1nnc(NC(=O)C(c2ccccc2)c2ccccc2)s1", "hERG current change (%, negative = inhibition) at 1uM": 8.35}, {"molecule": "O=C(CN(Cc1ccc(F)cc1)C(=O)c1csnn1)NC1CCCC1", "hERG current change (%, negative = inhibition) at 1uM": 16.1}, {"molecule": "COc1ccc(NC(=O)C(=O)NCCCO)cc1Cl", "hERG current change (%, negative = inhibition) at 1uM": 11.7}, {"molecule": "COc1ccc(/C(N)=N/OC(=O)c2cccs2)cc1OC", "hERG current change (%, negative = inhibition) at 1uM": 5.26}, {"molecule": "Cc1ccc(NC(=O)c2cccs2)cc1NC(=O)c1cccnc1", "hERG current change (%, negative = inhibition) at 1uM": 12.2}, {"molecule": "COc1ccc(NC(=O)C(Cc2ccccc2)n2cccc2)cc1OC", "note": "(centres unmarked)", "hERG current change (%, negative = inhibition) at 1uM": 8.28}, {"molecule": "CC(=O)c1cccc(NC(=O)c2nc(-c3ccccc3)oc2C)c1", "hERG current change (%, negative = inhibition) at 1uM": 9.95}, {"molecule": "O=C(COc1ccc(-c2ccccc2)cc1)N1CCN(S(=O)(=O)Cc2ccccc2)CC1", "hERG current change (%, negative = inhibition) at 1uM": 5.51}, {"molecule": "CCN(C(=O)CSc1nc2n[nH]c(C)c2c(=N)n1-c1ccc(Cl)c(C)c1)c1cccc(C)c1", "hERG current change (%, negative = inhibition) at 1uM": 9.64}, {"molecule": "Cc1cccc(CCNC(=O)c2cc(S(=O)(=O)N3CCCC3)cn2C)c1", "hERG current change (%, negative = inhibition) at 1uM": 4.9}, {"molecule": "C=CCn1c(SCC(=O)Nc2cc(C)on2)nc2sc(CC)cc2c1=O", "hERG current change (%, negative = inhibition) at 1uM": -0.113}, {"molecule": "COC(=O)CCc1ccc(O)cc1", "hERG current change (%, negative = inhibition) at 1uM": 8.17}, {"molecule": "O=C(Cn1cnc2ccccc21)c1ccc(Cl)cc1", "hERG current change (%, negative = inhibition) at 1uM": 14.2}, {"molecule": "COc1ccccc1CN1CC(C(=O)NCCCc2ccc(F)cc2)CCC1=O", "note": "(centres unmarked)", "hERG current change (%, negative = inhibition) at 1uM": 4.29}, {"molecule": "COc1ccc(/C=C(\\C#N)C(=O)NCC2CCCO2)cc1OC", "note": "(centres unmarked)", "hERG current change (%, negative = inhibition) at 1uM": -10.6}, {"molecule": "C=CCc1cccc2cc(C(=O)NC3CCCC3)c(=O)oc12", "hERG current change (%, negative = inhibition) at 1uM": 2.38}, {"molecule": "COc1ccc(N2CCN(Cc3nc4c(c(=O)n(C)c(=O)n4C)n3CC(C)=O)CC2)cc1", "hERG current change (%, negative = inhibition) at 1uM": 0.812}, {"molecule": "CCOc1ccc(N2CC(C(=O)N/N=C/c3sccc3C)CC2=O)cc1", "note": "(centres unmarked)", "hERG current change (%, negative = inhibition) at 1uM": 0.725}, {"molecule": "CCCN(CCO)Cc1ccc(Br)cc1", "hERG current change (%, negative = inhibition) at 1uM": 9.16}, {"molecule": "CN1C(=O)C2(N=c3ccccc3=N2)c2ccccc21", "hERG current change (%, negative = inhibition) at 1uM": -0.21}, {"molecule": "CC(=O)c1cccc(NC(=O)C2CCCN(S(=O)(=O)c3ccccc3)C2)c1", "note": "(centres unmarked)", "hERG current change (%, negative = inhibition) at 1uM": 7.51}, {"molecule": "CC1=CC(C)C2(CO)COC(c3cccnc3)C1C2C", "note": "(centres unmarked)", "hERG current change (%, negative = inhibition) at 1uM": 3.82}, {"molecule": "CC1Cc2ccccc2N1C(=O)CCN1C(=O)C2C3C=CC(C3)C2C1=O", "note": "(centres unmarked)", "hERG current change (%, negative = inhibition) at 1uM": 11.5}, {"molecule": "COc1ccc(OCCC(=O)OCC(=O)NCCC2=CCCCC2)cc1", "hERG current change (%, negative = inhibition) at 1uM": 6.2}, {"molecule": "Cc1cnc(NC(=O)Cc2cccs2)s1", "hERG current change (%, negative = inhibition) at 1uM": 1.74}, {"molecule": "O=C(NNCC(O)COc1ccccc1)c1ccccc1", "note": "(centres unmarked)", "hERG current change (%, negative = inhibition) at 1uM": 10.8}, {"molecule": "Nc1[nH]ncc1-c1ccc(F)cc1", "hERG current change (%, negative = inhibition) at 1uM": 13.8}, {"molecule": "Cc1cccc(OCc2nnc(SCC(=O)Nc3ncc(C)s3)o2)c1", "hERG current change (%, negative = inhibition) at 1uM": 33.5}, {"molecule": "CCOc1ccc(-n2c(C)c(C(C)=O)c3cc(O)ccc32)cc1", "hERG current change (%, negative = inhibition) at 1uM": 0.305}, {"molecule": "Cc1ccc(S(=O)(=O)N2CCC(C(=O)NC3CCCCC3C)CC2)cc1", "note": "(centres unmarked)", "hERG current change (%, negative = inhibition) at 1uM": 13.9}]}]}
